Experimental data: PubChem BioAssay AID686970 (National Center for Advancing Translational Sciences (NCATS), 2013)
Out of some 360,000 compounds screened, about 6,000 (1.7%) were called active. The shares of active, inactive and inconclusive entries below differ from those in the screen. Calls follow the shape of the dose curve; as a rule, active = well fitted cell-killing curve with a large enough effect; inconclusive = small, poorly fitted or top-dose-only effect, or effect the other way; inactive = flat fitted curve, though single readings scatter. Potencies of inconclusive entries are left out as doubtful fits.

Assay: qHTS for induction of synthetic lethality in tumor cells producing 2HG: qHTS for the HT-1080-NT fibrosarcoma cell line;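 also: NT is the 2HG producing partner of a matched IDH1 knockdown line; nearly all actives have a fitted effect of over 55% in size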;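 as to activity, negative = less viability: 0% = DMSO-treated cells and -100% = media-only wells without cells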
Conditions: HT-1080-NT fibrosarcoma viability, CellTiter-Glo ATP luminescence, 48 h; activity, negative = less viability: at 46.1 µM (top of the series) unless noted
Summary of the method: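 HT-1080-NT fibrosarcoma cells (2HG-overproducing), 750 cells/well in RPMI with 5% FBS, dosed after 2 h and incubated 48 h at 37C. CellTiter-Glo luminescence normalized to DMSO and no-cell wells; concentration-response curves fitted and classed.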
Potency is read from the fitted curve at half-maximal effect; tags tell the direction and shape of the fitted curve.

Q: For CC(Oc1ccccc1Cl)C(=O)Nc1ccc(S(=O)(=O)N2CCOCC2)cc1 (stereo not given), which Potency is on record?
A: The Potency was inconclusive [cytotoxic, single point].

Q: Which Potency does the source give for CCN(CC)c1ccc2c(c1)oc(=O)c1c(Cl)cc(=O)oc12 here?
A: The Potency was inconclusive [cytotoxic, single point].

Q: For COc1ccc(N(C)C(=O)c2cnc(N3CCN(c4ncccn4)CC3)c3ccccc23)cc1, which Potency is on record?
A: The Potency was inconclusive [rising, single point].

Q: Which Potency does the source give for COc1cccc(-c2nc(N3CCCCC3C)c3ccccc3n2)c1O (stereo not given) here?
A: Its Potency is inconclusive [cytotoxic, partial curve].

Q: Which “activity, negative = less viability” value does the source give for CCOc1nc(C)ccc1-c1noc(-c2cccnc2)n1 here?
A: Its value is inactive: 0.33%.

Q: Which Potency does the source give for CC1=C(C(=O)N2CCCCCC2)CC(CC(=O)NCCCN(C)C)C(=O)N1Cc1ccc(C(C)(C)C)cc1 (stereo not given) here?
A: The Potency was inconclusive [cytotoxic, single point].

Q: Which Potency does the source give for O=C(CSc1ncn[nH]1)N1N=C2/C(=C/c3ccco3)CCCC2C1c1ccco1 (stereo not given) here?
A: Its Potency is inconclusive [cytotoxic, single point].

Q: For COc1ccc(N2CC(C(=O)NCc3ccco3)CC2=O)cc1 (stereo not given), which “activity, negative = less viability” value is on record?
A: Its value is inactive: 3.78%.

Q: Which Potency does the source give for Cc1cccc(N(Cc2ccccc2)C(=O)CCl)c1 here?
A: The Potency was active: 1.46 µM.

Q: For COc1ccc(Br)cc1/C=N/NS(=O)(=O)c1ccccc1, which Potency is on record?
A: Its Potency is inconclusive [cytotoxic, single point].

Q: For CCCc1c(-c2ccc(Cl)cc2)ncn1Cc1cccc(-c2ccccc2)c1, which Potency is on record?
A: The Potency was inconclusive [cytotoxic, single point].

Q: Which Potency does the source give for c1ccc(C[C@H]2CN=C(Nc3ccccc3)N2CCC2CCCC2)cc1 here?
A: Its Potency is inconclusive [cytotoxic, single point].

Q: With COc1ccccc1Nc1nnc(SCc2cc(=O)n3ccsc3n2)s1 as the compound, how does the Potency read?
A: The Potency was inconclusive [cytotoxic, single point].

Q: With Cc1ccc(S(=O)(=O)CCSC(=N)N)cc1 as the compound, how does the Potency read?
A: Its Potency is inconclusive [cytotoxic, partial curve].

Q: With COc1ccc(Cl)cc1/C=C/c1ccc2cccc(O)c2n1 as the compound, how does the Potency read?
A: Its Potency is inconclusive [cytotoxic, single point].

Q: With NC(=O)c1ccccc1NC(=O)CSc1nc2ccccc2c(=O)[nH]1 as the compound, how does the Potency read?
A: Its Potency is active: 13 µM.

Q: Which Potency does the source give for C[C@]12c3[nH]c4ccc(Cl)cc4c3CCN1C(=O)[C@@H](CC(=O)NCC13CC4CC(CC(C4)C1)C3)C[C@@H]2C(=O)N1CCOCC1 here?
A: The Potency was active: 23.1 µM.

Q: For CCc1nc2ccc(C(=O)Nc3cccc(OCC(=O)N(C)C)c3)cn2c1N(C)Cc1ccc(OC)cc1, which Potency is on record?
A: Its Potency is inconclusive [cytotoxic, single point].

Q: Which Potency does the source give for COc1ccc(CN2CCC(Cc3ccccc3)CC2)cc1OC here?
A: The Potency was inconclusive [cytotoxic, single point].

Q: With O=C(NCCS(=O)(=O)N1CCN(c2ccccc2)CC1)C1CCCCC1 as the compound, how does the “activity, negative = less viability” value read?
A: The value was inactive: -3.55%.

Q: With CCOc1cc(/C=C/C(=O)c2ccc(OC)c(CN3CCOCC3)c2)cc(Br)c1O as the compound, how does the Potency read?
A: Its Potency is inconclusive [cytotoxic, single point].

Q: For Cc1cc(C)cc(NC(=O)CN2C(=O)NC(Cc3c[nH]c4ccccc34)C2=O)c1 (stereo not given), which “activity, negative = less viability” value is on record?
A: The value was inactive: -5.29%.

Q: For Cc1onc(-c2ccccc2Cl)c1C(=O)O/N=C(\N)c1ccc([N+](=O)[O-])o1, which Potency is on record?
A: The Potency was inconclusive [cytotoxic, single point].

Q: For CCCC[C@@H]1CC2=C(C(=O)OC(C)(C)O2)[C@H](c2ccc(C(C)C)cc2)O1, which Potency is on record?
A: The Potency was inconclusive [cytotoxic, single point].

Q: For CCc1nc(N[C@@H](Cc2c[nH]c3ccccc23)C(=O)O)c2oc3ccccc3c2n1, which Potency is on record?
A: The Potency was inconclusive [cytotoxic, single point].

Q: For Cc1ccc(-c2noc(CCC(=O)NCc3ccc4c(c3)OCO4)n2)cc1, which Potency is on record?
A: The Potency was inconclusive [cytotoxic, single point].

Q: Which activity, negative = less viability does the source give for O=C(NC(=S)N1CCCCCC1)c1cccc([N+](=O)[O-])c1 here?
A: Its activity, negative = less viability is inactive: -0.51% [at 9.24 µM].

Q: For CCCNC(=O)CSc1nnc(NC(=O)C2CC(=O)N(c3ccccc3OC)C2)s1 (stereo not given), which “activity, negative = less viability” value is on record?
A: Its value is inactive: -1.4%.

Q: Which Potency does the source give for CC1(C(=O)NCC2CC2)Cc2c(-c3ccc4c(c3)OCO4)ccnc2O1 (stereo not given) here?
A: Its Potency is inconclusive [cytotoxic, partial curve].

Q: Which Potency does the source give for CC(C)COc1ccc(C(=O)OCC(=O)NCc2cccs2)cc1 here?
A: Its Potency is inconclusive [cytotoxic, single point].

Q: For Cc1ccc(C(=O)NC(=S)Nc2cc(C(F)(F)F)ccc2Cl)cc1, which Potency is on record?
A: Its Potency is inconclusive [cytotoxic, partial curve].

Q: For COc1ccccc1C=C1CCc2ccccc2C1=O, which Potency is on record?
A: The Potency was inconclusive [cytotoxic, single point].

Q: Which Potency does the source give for CN(C)CCCNC(=S)N1CCN(c2nc(-c3ccccc3)cs2)CC1 here?
A: The Potency was inconclusive [cytotoxic, single point].

Q: With Cc1ccc(C2=NN(C(=O)c3ccccc3F)C(c3ccccc3F)C2)cc1 (stereo not given) as the compound, how does the Potency read?
A: The Potency was active: 13 µM.

Q: With COC(=O)C1=C(COc2ccccc2)NC(=O)NC1c1ccc2ccccc2c1 (stereo not given) as the compound, how does the Potency read?
A: The Potency was inconclusive [cytotoxic, single point].

Q: Which “activity, negative = less viability” value does the source give for COc1ccccc1N1CCN(C(=O)NCc2ccc(Cl)cc2)CC1 here?
A: Its value is inactive: -11.6%.

Q: For COc1ccccc1OCC(O)Cn1c(=N)n(CCN2CCCCC2)c2ccccc21 (stereo not given), which Potency is on record?
A: The Potency was inconclusive [cytotoxic, single point].

Q: With O=C(NCN1CCN(c2ccccc2)CC1)c1cnccn1 as the compound, how does the “activity, negative = less viability” value read?
A: The value was inactive: -2.01%.

Q: Which Potency does the source give for CCOC(=O)N1CCC(NC(=O)CS(=O)Cc2nc(-c3ccc(Cl)cc3)oc2C)CC1 (stereo not given) here?
A: Its Potency is active: 18.4 µM.

Q: Which “activity, negative = less viability” value does the source give for O=S(=O)(Nc1c(F)cccc1F)c1ccc(Cl)nc1 here?
A: The value was inactive: 0.581%.

Q: With Cn1c(SCC(=O)N2CCN(C(=O)c3ccco3)CC2)nnc1-c1ccc(NS(C)(=O)=O)cc1 as the compound, how does the Potency read?
A: The Potency was inconclusive [rising, single point].

Q: With COc1ccc(C(=O)CCNc2ccc(F)cc2)cc1 as the compound, how does the activity, negative = less viability read?
A: Its activity, negative = less viability is inconclusive: 33%.

Q: Which “activity, negative = less viability” value does the source give for COc1ccccc1N(Cc1ccccc1)S(=O)(=O)c1cccc(C(=O)NC2CC(C)(C)NC(C)(C)C2)c1 here?
A: The value was inactive: -24.8%.

Q: Which “activity, negative = less viability” value does the source give for COc1ccccc1C(CNc1nc(C(F)(F)F)nc2ccccc12)N(C)C (stereo not given) here?
A: The value was inactive: -10.7%.

Q: For Clc1ccc2ccc3cccnc3c2n1, which “activity, negative = less viability” value is on record?
A: Its value is inactive: -0.815%.

Q: For COc1ccc(-c2noc(C3CCCN(C(=O)c4ccccc4OC)C3)n2)cc1 (stereo not given), which “activity, negative = less viability” value is on record?
A: The value was inactive: -5.13%.

Q: For C/C(=N\Nc1nccnc1Cl)c1ccc(O)c(C)c1, which Potency is on record?
A: Its Potency is inconclusive [cytotoxic, single point].

Q: For COC(=O)[C@]12CCCCC=C1N(Cc1ccco1)C(=O)[C@H](CC(=O)N1CCC(c3ccccc3)CC1)C2, which Potency is on record?
A: Its Potency is inconclusive [cytotoxic, single point].

Q: For COc1ccc(C2C(C#N)=C(N)N(c3cccnc3)C3=C2C(=O)CCC3)cc1Cn1cc([N+](=O)[O-])cn1 (stereo not given), which Potency is on record?
A: Its Potency is inconclusive [cytotoxic, single point].

Q: With O=C(Cn1cnc([N+](=O)[O-])n1)N/N=C/c1cc(Cl)ccc1O as the compound, how does the Potency read?
A: The Potency was inconclusive [cytotoxic, partial curve].

Q: For CC(C)C[C@@H](CN)NC(=O)c1nc[nH]c1C(=O)N[C@@H](C)C(=O)CNC[C@H](C)NC(=O)c1nc[nH]c1C(=O)N[C@@H](CC(=O)O)C(=O)O, which “activity, negative = less viability” value is on record?
A: Its value is inactive: 14.6%.

Q: With CCCCCCCCC(=O)NC(NC(=S)N1CCOCC1)C(Cl)(Cl)Cl (stereo not given) as the compound, how does the Potency read?
A: Its Potency is inconclusive [cytotoxic, single point].

Q: For CN1CCN(c2ccccc2NC(=O)c2ccc(OCc3ccccc3)cc2)CC1, which Potency is on record?
A: Its Potency is inconclusive [cytotoxic, single point].

Q: For CCOC(=O)C1=C[C@@H](C2CCCC2)N(S(=O)(=O)c2ccc([N+](=O)[O-])cc2)[C@H]1c1ccccc1, which Potency is on record?
A: Its Potency is inconclusive [cytotoxic, single point].

Q: Which “activity, negative = less viability” value does the source give for COc1ccc(/C=C2\N=C3CCCCCN3C2=O)cc1 here?
A: The value was inactive: -2.46%.

Q: For CC(C)CN(CCCNC(=O)CN1N=C(c2ccc(Cl)cc2)CCC1=O)CC(C)C, which “activity, negative = less viability” value is on record?
A: The value was inactive: 1.29%.

Q: Which Potency does the source give for O=C(CSc1cccc[n+]1[O-])Nc1ccccc1Oc1ccccc1 here?
A: The Potency was active: 8.2 µM.

Q: For O=C(Nc1cc(C(F)(F)F)ccc1-n1cncn1)c1ccc(Br)cc1, which “activity, negative = less viability” value is on record?
A: The value was inactive: -11.6%.

Q: Which Potency does the source give for CCC(C)(C)c1ccc(OCC(=O)N(C)C)c(C(C)(C)CC)c1 here?
A: Its Potency is inconclusive [cytotoxic, single point].

Q: Which Potency does the source give for Fc1cccc(NC(=S)Nc2ccc(Br)cc2)c1 here?
A: Its Potency is inconclusive [cytotoxic, single point].

Q: Which Potency does the source give for COc1cccc(-c2nnn(CC(=O)Nc3cc(OC)c(NC(=O)c4ccco4)cc3OC)n2)c1 here?
A: Its Potency is inconclusive [cytotoxic, single point].

Q: With CCOc1ccc(Cl)cc1/C=N/O as the compound, how does the “activity, negative = less viability” value read?
A: Its value is inactive: 8.79%.

Q: With Cc1cc(C)c(CN2CCN(Cc3ccc(C)o3)C(CCO)C2)c(-n2cccn2)c1 (stereo not given) as the compound, how does the activity, negative = less viability read?
A: Its activity, negative = less viability is inconclusive: -31.2% [cytotoxic].

Q: With O=S(=O)(Nc1nc(SCc2ccc(Cl)cc2)n[nH]1)c1ccc(F)cc1 as the compound, how does the Potency read?
A: The Potency was inconclusive [cytotoxic, partial curve].

Q: For COc1cc(/C=N/Nc2nc(Nc3ccccc3)nc(-n3nc(C)cc3C)n2)cc(OC)c1OC, which Potency is on record?
A: The Potency was inconclusive [cytotoxic, single point].

Q: With Cc1noc(NS(=O)(=O)c2ccc(NC(=O)c3cc(F)c(F)c(F)c3F)cc2)c1C as the compound, how does the “activity, negative = less viability” value read?
A: The value was inactive: 0.803%.

Q: With CCN(c1ccccc1)S(=O)(=O)c1ccc(C(=O)NCCc2ccc(S(N)(=O)=O)cc2)cc1 as the compound, how does the “activity, negative = less viability” value read?
A: Its value is inactive: -27.8%.

Q: With CC1(C(=O)NS(=O)(=O)Cc2cccc(Cl)c2)CCN1C(=O)c1ccc(C2CCCCC2)cc1 (stereo not given) as the compound, how does the “activity, negative = less viability” value read?
A: The value was inactive: 11.2%.

Q: With O=S(=O)(c1ccccc1)N1CCN(c2nnc(-c3ccccc3)c3ccccc23)CC1 as the compound, how does the “activity, negative = less viability” value read?
A: The value was inactive: 3.42%.

Q: For CC(C)Oc1cc(F)ccc1-c1cc(C(=O)Nc2cccc(Cl)c2)[nH]n1, which Potency is on record?
A: Its Potency is inconclusive [cytotoxic, single point].
